Article PMC4336329 (PLoS ONE, 2015)
In all, about 310,000 compounds went through this assay and about 2,200 (0.71%) showed an effect of 50% or more. The effect is printed as a negative number. Some of the results follow.

molecular target: human ether-à-go-go-related gene (hERG) potassium channel (human, UniProt Q12809); assay: primary screen, population patch clamp on CHO cells stably expressing hERG
Sequence (Q12809 whole entry, looked up): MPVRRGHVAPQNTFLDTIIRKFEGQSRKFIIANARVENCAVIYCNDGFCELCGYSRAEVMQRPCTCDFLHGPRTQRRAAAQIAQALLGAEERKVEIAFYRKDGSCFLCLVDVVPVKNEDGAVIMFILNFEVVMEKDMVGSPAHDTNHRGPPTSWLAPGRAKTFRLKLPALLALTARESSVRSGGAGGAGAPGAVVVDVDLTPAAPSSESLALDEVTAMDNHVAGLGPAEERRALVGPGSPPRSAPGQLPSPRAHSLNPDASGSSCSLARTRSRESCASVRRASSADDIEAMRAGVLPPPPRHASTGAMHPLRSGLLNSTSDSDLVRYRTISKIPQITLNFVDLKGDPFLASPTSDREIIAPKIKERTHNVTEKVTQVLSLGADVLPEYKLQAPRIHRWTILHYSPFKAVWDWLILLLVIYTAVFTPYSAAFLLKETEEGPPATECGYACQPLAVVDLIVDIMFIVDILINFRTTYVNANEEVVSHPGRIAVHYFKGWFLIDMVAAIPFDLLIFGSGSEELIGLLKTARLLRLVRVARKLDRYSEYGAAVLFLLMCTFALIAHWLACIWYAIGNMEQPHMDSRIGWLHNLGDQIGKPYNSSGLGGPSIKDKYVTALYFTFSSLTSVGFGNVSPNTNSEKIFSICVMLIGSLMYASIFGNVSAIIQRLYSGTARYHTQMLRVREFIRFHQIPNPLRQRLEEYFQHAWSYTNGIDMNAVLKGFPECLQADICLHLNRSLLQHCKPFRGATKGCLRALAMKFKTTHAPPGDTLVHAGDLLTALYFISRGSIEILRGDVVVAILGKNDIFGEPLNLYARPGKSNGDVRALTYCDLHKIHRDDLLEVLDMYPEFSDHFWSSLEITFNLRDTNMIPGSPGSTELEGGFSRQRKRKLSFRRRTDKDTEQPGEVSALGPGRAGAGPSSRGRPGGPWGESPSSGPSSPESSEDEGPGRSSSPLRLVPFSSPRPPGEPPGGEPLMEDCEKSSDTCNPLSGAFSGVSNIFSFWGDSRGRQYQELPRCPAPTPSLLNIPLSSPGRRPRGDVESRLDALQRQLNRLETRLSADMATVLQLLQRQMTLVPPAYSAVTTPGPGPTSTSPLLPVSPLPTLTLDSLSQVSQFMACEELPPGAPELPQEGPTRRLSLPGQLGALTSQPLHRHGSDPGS

First: Cc1nc(N2CCN(c3ccccn3)CC2)c2c(C)c(C(=O)Nc3c(F)cc(F)cc3Br)sc2n1
Second: COc1cc(OC)cc(-c2cc3nc4c(c(N5CCN(c6ncccn6)CC5)n3n2)CCCC4)c1
The “hERG current change (%, negative = inhibition) at 1uM” value of the first is lower: 11.9% for the first, 12.6% for the second.

Going from CN1CCCN(S(=O)(=O)c2ccccc2)CC1.Cl to O=C(NCc1ccccn1)c1cc(S(=O)(=O)N2CCCCC2)ccc1Cl, the “hERG current change (%, negative = inhibition) at 1uM” value rises from -2.23% to 5.62%.

Going from COc1ccc(CNC(=O)C2(CC3CC(c4ccccc4)=NO3)CCN(C(=O)Cc3ccc(F)cc3)CC2)cc1 (centres unmarked) to O=C(COc1ccc2ccccc2c1)N1CCN(C(=O)c2cccs2)CC1, the “hERG current change (%, negative = inhibition) at 1uM” value falls from 12.8% to -14.7%.

Compared with CN(Cc1c(C(=O)N2CCc3ccccc3C2)nc2ccc(Cl)cn12)C(C1CC1)C1CC1, COc1ccccc1C(=O)C1CCCN(Cc2ccc3c(c2)OCCO3)C1 (centres unmarked) is lower in “hERG current change (%, negative = inhibition) at 1uM” value: 12.9% for the first, 9.1% for the second.

Compared with Cn1cccc1/C=C1\CCc2ccccc2C1=O, Cc1nc(=O)c(-c2ccccc2)c(C)n1CCCO is higher in “hERG current change (%, negative = inhibition) at 1uM” value: 8.49% for the first, 10.8% for the second.

Going from O=S(=O)(c1ccc2ccccc2c1)n1cccn1 to O=C(Nc1ccccn1)c1cccc(S(=O)(=O)N2CCCc3ccccc32)c1, the “hERG current change (%, negative = inhibition) at 1uM” value falls from 7.75% to -3.46%.

First: COc1ccccc1NS(=O)(=O)c1cc(NC(=O)c2sccc2C)ccc1N1CCCC1
Second: COc1ccc(NC(=O)c2ccc(NCC3CCCO3)c([N+](=O)[O-])c2)cc1 (centres unmarked)
The “hERG current change (%, negative = inhibition) at 1uM” value of the first is higher: 15.8% for the first, 2.95% for the second.

Going from Cc1cccc(C(=O)N[C@H](C(=O)OCc2cc(=O)n3c(n2)sc2ccccc23)C(C)C)c1 to CCOc1cc(C(=O)N(C)CC(=O)Nc2cccc3ccccc23)ccc1OC, the “hERG current change (%, negative = inhibition) at 1uM” value falls from 12.5% to 6.42%.

Going from CC1CN(c2ccccc2)CCN1C(=O)c1cc(COc2c(F)cccc2F)on1 (centres unmarked) to CC(Oc1ccccc1)C(=O)Nc1ccccc1F (centres unmarked), the “hERG current change (%, negative = inhibition) at 1uM” value falls from 7.17% to -6.58%.

First: COc1ccccc1S(=O)(=O)CC(O)COc1ccccc1Cl (centres unmarked)
Second: COc1ccccc1OCc1csc(NC(=O)c2ccco2)n1
The “hERG current change (%, negative = inhibition) at 1uM” value of the first is higher: 9.79% for the first, -8.35% for the second.

Going from COc1ccc(COc2cc(-c3cccc(OC)c3)nc3ccc(NC(=O)c4ccc(OC)cc4)cc23)cc1 to CCN1CCN(Cc2ccc(NC(=O)c3cc(NC(=O)c4ccc5n[nH]nc5c4)cc(OC)c3)cc2C(F)(F)F)CC1, the “hERG current change (%, negative = inhibition) at 1uM” value rises from 15.9% to 23.4%.

Compared with CCc1c(C)c2c(C)nn(-c3ccccc3)c2[nH]c1=O, Cc1cccnc1NC(=O)CSc1nnc(Cc2ccccc2)o1 is higher in “hERG current change (%, negative = inhibition) at 1uM” value: -2.21% for the first, 8.52% for the second.

Going from COc1cccc(NC(=O)CN(C)CC(=O)NCc2ccco2)c1 to COc1ccc(CNC(=O)Cn2c(=O)oc3ccccc32)cc1OC, the “hERG current change (%, negative = inhibition) at 1uM” value falls from 11.7% to -1.21%.

Compared with CCN1CCCC1CNC(=O)c1ccc(Sc2ccc(F)cc2)c([N+](=O)[O-])c1 (centres unmarked), CSCCC(NC(=O)c1cc([N+](=O)[O-])cc([N+](=O)[O-])c1)c1nc2ccccc2[nH]1 (centres unmarked) is higher in “hERG current change (%, negative = inhibition) at 1uM” value: -19.8% for the first, -13.6% for the second.

Compared with CC(C)(C)OC(=O)N1CCC[C@H]1c1nnc(SCc2cccc(Cl)c2)o1, Cc1ccsc1CNn1cnnc1SCc1ccc(Cl)cc1 is higher in “hERG current change (%, negative = inhibition) at 1uM” value: 16.1% for the first, 16.7% for the second.

Going from COC(=O)CNC(=O)c1ccc(=O)oc1 to CCC(=O)NC(=S)Nc1ccc(NC(=O)c2ccc(Br)o2)cc1, the “hERG current change (%, negative = inhibition) at 1uM” value rises from 11% to 14.9%.

Going from O=[N+]([O-])c1ccc(-c2cn3c(n2)CCC3)cc1 to Cc1ccc(C2=NC3(CCCC3)NC2=S)cc1, the “hERG current change (%, negative = inhibition) at 1uM” value rises from 7.15% to 8.96%.

Compared with Cc1c(C)n2c(SCC(=O)N3CCCCC3)nnc2[nH]c1=O, O=C1NC2(CCCCC2)C(=O)N1Cc1cc(=O)n2ccsc2n1 is lower in “hERG current change (%, negative = inhibition) at 1uM” value: 8.95% for the first, 6.06% for the second.

Compared with CN(C)C(=O)COc1ccc(C(=O)/C=C/c2cccnc2)cc1, CN(C)C(=O)CN(C)S(=O)(=O)c1ccc(Cl)cc1 is lower in “hERG current change (%, negative = inhibition) at 1uM” value: 15.1% for the first, -1.64% for the second.

Compared with O=C(NC1CCN(C(=S)Nc2ccc(Cl)cc2)CC1)C1CCCCC1, O=C(CN1CCN(S(=O)(=O)c2cccc(F)c2)CC1)Nc1ccnn1C1CCCC1 is lower in “hERG current change (%, negative = inhibition) at 1uM” value: 16.6% for the first, 11.2% for the second.

First: O=C(O)c1ccc(CSc2ncnc3c2cnn3Cc2ccccc2)cc1
Second: CCN(CC)S(=O)(=O)c1ccc2oc(C(=O)NCc3ccc(C)cc3)c(C)c2c1
The “hERG current change (%, negative = inhibition) at 1uM” value of the first is higher: 13.9% for the first, 0.647% for the second.

Going from COc1ccc(S(=O)(=O)N2CCOC2CNC(=O)C(=O)NCCCN(C)C)cc1C (centres unmarked) to COc1ccc(NC(=O)N2CCN(S(C)(=O)=O)CC2)c(OC)c1, the “hERG current change (%, negative = inhibition) at 1uM” value rises from -2.58% to 10.5%.

Compared with COc1ccc(CCNS(=O)(=O)c2ccc(OC)c(OC)c2)cc1OC, Cc1cc(C)n2nc(CNS(=O)(=O)c3ccc(F)c(C)c3)nc2n1 is lower in “hERG current change (%, negative = inhibition) at 1uM” value: 6.59% for the first, 2.42% for the second.

Going from C=CCNC(=O)C1CC1(c1ccc(C)cc1)c1ccc(C)cc1 (centres unmarked) to Cc1ccc(C2=NOC3(CC(=O)N(c4ccc(C)cc4)C3=O)C2)cc1 (centres unmarked), the “hERG current change (%, negative = inhibition) at 1uM” value rises from 8.38% to 13%.

First: CC(C)C(Nc1ccc(C(F)(F)F)cc1[N+](=O)[O-])C(=O)O (centres unmarked)
Second: CN(C)CCNC(C(=O)Nc1cc(Cl)cc(Cl)c1)c1ccccc1 (centres unmarked)
The “hERG current change (%, negative = inhibition) at 1uM” value of the first is lower: -3.09% for the first, -0.213% for the second.

Compared with O=C(N/C(=C/c1ccco1)C(=O)N1CCCCCC1)c1cccs1, O=C(CN1CCN(S(=O)(=O)c2ccc(Br)cc2)CC1)N/N=C/c1ccncc1 is lower in “hERG current change (%, negative = inhibition) at 1uM” value: -10% for the first, -51.8% for the second.

Going from O=C1CCCN1CCCNC(=S)Nc1ccc(Br)cc1Cl to CCCOC(=O)Nc1cc(OC)c(Cl)cc1OC, the “hERG current change (%, negative = inhibition) at 1uM” value falls from 9.49% to 8.47%.

Going from Cc1ccc(/C=N/N2C(=O)C3C(C2=O)C2C=CC3C23CC3)o1 (centres unmarked) to c1ccc(C(c2nnnn2C2CCCC2)N2CCN(c3nc4ccccc4s3)CC2)cc1 (centres unmarked), the “hERG current change (%, negative = inhibition) at 1uM” value rises from 3.63% to 9.63%.
